Measurements: US20240293367A1, “METHODS OF TREATING DISORDERS WITH A […]” (Cybin IRL Limited, priority 2023, published 2024)

Assay: Safety and tolerability (adverse events) in the Phase I/IIa study
Details: all cohorts

[2H]C([2H])([2H])N(C([2H])([2H])[2H])C([2H])([2H])C([2H])([2H])c1c[nH]c2cccc(O)c12 [psilocin-d10, 3-(2-(bis(methyl-d3)amino)ethyl-1,1,2,2-d4)-1H-indol-4-ol]
severity of adverse events / serious adverse events: mild or moderate in severity, with no serious adverse events
